Test results published in the RNAGym collection of RNA variant scans (doi:10.7554/elife.90254).
Read counts are not given, so values of variants with three or more changes are uncertain.

B1: LINE1-mini (parent)
chain: GGCAGAGCUCAACACAGCGUGGCAAAGUGGCUGUGGCUAGACUGCC

Variants of: B1
Experiment: self-cleavage, relative activity (ratio to wild type); higher = more cleavage; in vitro, sequencing; the parent is a self-cleaving ribozyme

Variant	self-cleavage
GGGAAAGCUCAACACAGCGUGGCAUAGUGGCUGUGGCUAGACUGCC [C3G G5A A25U]	0.2
GGGAAAGCUCAAAACAGCUUGGCAAAGUGGACGUGGCUAGACUGCC [C3G G5A C13A G19U C31A U32C]	0.09
GGGAAAGCUCAACAGAACGUGGCAAAGUGGCUGUGGCUAGACUGCC [C3G G5A C15G G17A]	0.06
GGGAAAGCUCAACACAGCGUGGCAAAGUUGCUGUGGCUAGACUGCU [C3G G5A G29U C46U]	0.22
GGGACCGCUCAACACAGCGUGGCAAAGUGGCUGUGGCUAGACUGCC [C3G G5C A6C]	0.3
GGGACAGCUCAAUACAGCGUGGCAAAGUGUCUGUGUCUAAACUGCC [C3G G5C C13U G30U G36U G40A]	0.42
GGGACAGCUCAACACAACGUGGCAAAGGGACUGUGGCUAGACUCCC [C3G G5C G17A U28G G30A G44C]	0.01
GGGACAGCUCAACACAGCGUGGCAAAGUGGCUGGGGCUAGACUGCC [C3G G5C U34G]	0.08
GGGAUAGCUCAACACUGCGUUGCAAAGUGGCUGUGGCUAGACUGCC [C3G G5U A16U G21U]	0.05
GGGAUAGCUCAACACAGCGUGGCGAAGUGGCUGUGGCUAGACUGCC [C3G G5U A24G]	0.16
GGGAUAGCUCAACACAGCGUGGCAACCUGGCUGUUGCUAGACUGCC [C3G G5U A26C G27C G35U]	0.14
GGGAUAGUUCAACACAGCGUGGCAAAGUGGCUGUGGCUAGACUGCC [C3G G5U C8U]	0.08
GGGAUAGCUCAAGACAGCGUGUCAAAGUGGCUGUGGCUAGACUGCC [C3G G5U C13G G22U]	0.85
GGGAUAGCUCAACACAGCGUAGCAAAGUGGCUGUGGCUAUACUGCC [C3G G5U G21A G40U]	0.08
GGGAUAGCUCAACACAGCGUGACAAAGUGGCUGUUGAUAGAUUGCC [C3G G5U G22A G35U C37A C42U]	1.54
GGGAUAGCUCAACACAGCGUGGCAAAGUGGCUGUUGCUAGACUGCC [C3G G5U G35U]	0.1
GGGAGAACUAAACAAAGCGUGGCAAAGUGGCUGUGGCUAGGCUGCC [C3G G7A C10A C15A A41G]	0.05
GGGAGAACUAAACACAGCGCGGCAAGCUGGCAUUGGCUAUACUGCC [C3G G7A C10A U20C A26G G27C U32A G33U G40U]	0.03
GGGAGACCUCAACACAGCGUGGCAAUGUGGCUGUGGCUAGACUUCC [C3G G7C A26U G44U]	0.02

Variant	self-cleavage
GGGAGACGAAAACACAGCGUGGCAAAGUGGCUGUGGCUAGACUGCC [C3G G7C C8G U9A C10A]	0.02
GGGAGACCUCAACAUAGCGUGGCAAAGUGGCUGUGGCUUGACGGCC [C3G G7C C15U A39U U43G]	0
GGGAGACCUCAACACAGCGUGGCAAAGUGGCUGUGGCUAGACUUCC [C3G G7C G44U]	0.05
GGGAGAUCUCAACACAGCGUGGCAAUGUGGCUGUGGCUAGACUGCA [C3G G7U A26U C46A]	0.15
GGGAGAUCUCAACACAUCGUGGCAAAGUGGCUGUGGCUAGACUGCC [C3G G7U G17U]	0.31
GGGAGAUCUCAACACAGCGUGGCAAAGUGGCUGUGACUACACUGCC [C3G G7U G36A G40C]	1.89
GGGAGAGCUCAACACAAGGUGGCAAAGGGGCUGUGGCUAGACUGCC [C3G G17A C18G U28G]	0.33
GGGAGAGCUCAACACAACGUGGCAAAGUGGGUGUGGCUAGAGUGCC [C3G G17A C31G C42G]	0.08
GGGAGAGCUCAACACACCGUGGCAGAGUGGCUCUGGCUAGACUGCC [C3G G17C A25G G33C]	0.05
GGGAGAGCUCAACACACAGUUGCAAAGUGGCUGUGGCUAGACUGCC [C3G G17C C18A G21U]	0.02
GGGAGAGCUCAACACACCGUGGCAAAGUGGCUAUGGCUACACUGCC [C3G G17C G33A G40C]	0.2
GGGAGAGCUCAACACAUCGUGGAAGAGUGGCUGUGUCUAGACUGCA [C3G G17U C23A A25G G36U C46A]	0.09
GGGAGAGCUCAACACAGCAUGGGAAAGUGGCUGUGGCUAGACUGCC [C3G G19A C23G]	0.39
GGGAGAGCUCAACACAGCAUGGGAAAGUGGCUGUGGCUAGUCUGCC [C3G G19A C23G A41U]	0.11
GGGAGAGCUCAACACAGCAUGGCAAAGUGGGUGUGGCUAGACUGCC [C3G G19A C31G]	0.06
GGGAGAGCUCAACACAGCAUGACAAAGUGGCUGUGGCUAGACCGCC [C3G G19A G22A U43C]	0.02
GGGAGAGCUCAACACAGCAGGGCAAAGUGGCUAUGGCUAGACUGCC [C3G G19A U20G G33A]	0.09
GGGAGAGCUCAACACAGCCUGUCAAAGUGGCUAUGGCUCGACUGCC [C3G G19C G22U G33A A39C]	0.04
GGGAGAGCUCAACACAGCUUGGCAAAGUGGCUGUGGCUAGAAUGCA [C3G G19U C42A C46A]	0.18

Variant	self-cleavage
GGGAGAGCUCAACACAGCGUAGCACAGUGGCUGUGGCUAGACUGCC [C3G G21A A25C]	0.57
GGGAGAGCUCAACACAGCGUCGCAAAGUCGCAGUGGCUAGAAUGCC [C3G G21C G29C U32A C42A]	0.1
GGGAGAGCUCAACACAGCGUCGCAAAGUGGCUGUGUCUAGACUGCC [C3G G21C G36U]	0.1
GGGAGAGCUCAACACAGCGUUGCGAAGUGGCUGUGGCUAGACUGCC [C3G G21U A24G]	0.25
GGGAGAGCUCAACACAGCGUUGCAAAGUGGCUGUGGCUAGCCUGCC [C3G G21U A41C]	0.19
GGGAGAGCUCAACACAGCGUUGCAAAUUAGCUGUGGCUAGACUGCC [C3G G21U G27U G29A]	0.16
GGGAGAGCUCAACACAGCGUUGCAAAUUGGCUGUGGCUACACUGCC [C3G G21U G27U G40C]	0.04
GGGAGAGCUCAACACAGCGUUGCAAAGUGGCUGUGGCUAAACUGCC [C3G G21U G40A]	0.07
GGGAGAGCUCAACACAGCGUUGCAAAGUGGCUGUGGCUAGACAGCC [C3G G21U U43A]	0.2
GGGAGAGCUCAACACAGCGUGCCAAAGUGGUUGUGGCUCGACUGCC [C3G G22C C31U A39C]	0.02
GGGAGAGCUCAACACAGCGUGUCAUAGUGGUUGUGGCUAGACUGCC [C3G G22U A25U C31U]	0.03
GGGAGAGCUCAACACAGCGUGGCAAACUGUCUGUGGCAAAACUGCC [C3G G27C G30U U38A G40A]	0.2
GGGAGAGCUCAACACAGCGUGGCAAAUUGGCUGUGGCUAGAAUGCC [C3G G27U C42A]	0.01
GGGAGAGCUCAACACAGCGUGGCAAAUUGUCUGUGGCUAGACUGCC [C3G G27U G30U]	0.54
GGGAGAGCUCAACACAGCGUGGCAAAGUAGCUGUGGCCAGACUGCC [C3G G29A U38C]	0.31
GGGAGAGCUCAACACAGCGUGGCAAAGUCGCUGUGGCUAGACUGUC [C3G G29C C45U]	0.23
GGGAGAGCUCAACACAGCGUGGCAAAGUUGCUGUGGCUAGACUGUC [C3G G29U C45U]	0.45
GGGAGAGCUCAACACAGCGUGGCAAAGUUGCUGUGGCUAGACUACC [C3G G29U G44A]	0.44
